Consider 31 molecules from PMC9911399, “Two distinct binding modes provide the RNA-binding protein RbFox with extraordinary sequence specificity”.

Changes are numbered by the printed parent chain; changes in the protein carry UniProt numbers. Some of the results follow.

The labels stand for the following.
T1: RBFOX1 RRM (Homo sapiens, UniProt Q9NWB1 109-208)
T1 sequence: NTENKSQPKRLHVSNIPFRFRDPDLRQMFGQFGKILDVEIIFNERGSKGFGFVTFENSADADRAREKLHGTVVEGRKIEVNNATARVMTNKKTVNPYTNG

B1: GCCGUAA (DNA:RNA)
RNA: GGGAGACCGGAAUUCAGAUUGUCCGCCGUAAUUAAAUCCCGUCGUAGCCACCA
DNA 1: CAATCTGAATTCCGGTCTCCC
DNA 2: TGGTGGCTACGACGGGATT
B2: UCCCUUA (DNA:RNA)
RNA: B1 RNA with G25U, G28C, A30U
DNA 1: CAATCTGAATTCCGGTCTCCC
DNA 2: TGGTGGCTACGACGGGATT
B3: CGCCUGC (DNA:RNA)
RNA: B1 RNA with G25C, C26G, G28C, A30G, A31C
DNA 1: CAATCTGAATTCCGGTCTCCC
DNA 2: TGGTGGCTACGACGGGATT
B4: GAAACGU (DNA:RNA)
RNA: B1 RNA with C26A, C27A, G28A, U29C, A30G, A31U
DNA 1: CAATCTGAATTCCGGTCTCCC
DNA 2: TGGTGGCTACGACGGGATT
B5: CAGUGGU (DNA:RNA)
RNA: GGGAGACCGGAAUUCAGAUUGUCCCAGUGGUUUAAAUCCCGUCGUAGCCACCA
DNA 1: CAATCTGAATTCCGGTCTCCC
DNA 2: TGGTGGCTACGACGGGATT
B6: AGCUAUG (DNA:RNA)
RNA: B5 RNA with C25A, A26G, G27C, G29A, G30U, U31G
DNA 1: CAATCTGAATTCCGGTCTCCC
DNA 2: TGGTGGCTACGACGGGATT
B7: GAACGGC (DNA:RNA)
RNA: B5 RNA with C25G, G27A, U28C, U31C
DNA 1: CAATCTGAATTCCGGTCTCCC
DNA 2: TGGTGGCTACGACGGGATT
B8: CGCGACG (DNA:RNA)
RNA: B1 RNA with G25C, C26G, U29A, A30C, A31G
DNA 1: CAATCTGAATTCCGGTCTCCC
DNA 2: TGGTGGCTACGACGGGATT
B9: GGGUGUC (DNA:RNA)
RNA: B5 RNA with C25G, A26G, G30U, U31C
DNA 1: CAATCTGAATTCCGGTCTCCC
DNA 2: TGGTGGCTACGACGGGATT
B10: CCAGAUA (DNA:RNA)
RNA: B1 RNA with G25C, C27A, U29A, A30U
DNA 1: CAATCTGAATTCCGGTCTCCC
DNA 2: TGGTGGCTACGACGGGATT
B11: CACCAUA (DNA:RNA)
RNA: B5 RNA with G27C, U28C, G29A, G30U, U31A
DNA 1: CAATCTGAATTCCGGTCTCCC
DNA 2: TGGTGGCTACGACGGGATT
B12: GUAAAUC (DNA:RNA)
RNA: B1 RNA with C26U, C27A, G28A, U29A, A30U, A31C
DNA 1: CAATCTGAATTCCGGTCTCCC
DNA 2: TGGTGGCTACGACGGGATT
B13: AGUAGCU (DNA:RNA)
RNA: B5 RNA with C25A, A26G, G27U, U28A, G30C
DNA 1: CAATCTGAATTCCGGTCTCCC
DNA 2: TGGTGGCTACGACGGGATT
B14: AUGACGA (DNA:RNA)
RNA: B5 RNA with C25A, A26U, U28A, G29C, U31A
DNA 1: CAATCTGAATTCCGGTCTCCC
DNA 2: TGGTGGCTACGACGGGATT
B15: GCCUCCU (DNA:RNA)
RNA: B1 RNA with G28U, U29C, A30C, A31U
DNA 1: CAATCTGAATTCCGGTCTCCC
DNA 2: TGGTGGCTACGACGGGATT
B16: ACUAAGU (DNA:RNA)
RNA: B5 RNA with C25A, A26C, G27U, U28A, G29A
DNA 1: CAATCTGAATTCCGGTCTCCC
DNA 2: TGGTGGCTACGACGGGATT
B17: UACUCAA (DNA:RNA)
RNA: B1 RNA with G25U, C26A, G28U, U29C
DNA 1: CAATCTGAATTCCGGTCTCCC
DNA 2: TGGTGGCTACGACGGGATT
B18: UGGUCCU (DNA:RNA)
RNA: B5 RNA with C25U, A26G, G29C, G30C
DNA 1: CAATCTGAATTCCGGTCTCCC
DNA 2: TGGTGGCTACGACGGGATT
B19: UCGUGGA (DNA:RNA)
RNA: B5 RNA with C25U, A26C, U31A
DNA 1: CAATCTGAATTCCGGTCTCCC
DNA 2: TGGTGGCTACGACGGGATT
B20: CGUUACG (DNA:RNA)
RNA: B5 RNA with A26G, G27U, G29A, G30C, U31G
DNA 1: CAATCTGAATTCCGGTCTCCC
DNA 2: TGGTGGCTACGACGGGATT
B21: CCGCGAG (DNA:RNA)
RNA: B5 RNA with A26C, U28C, G30A, U31G
DNA 1: CAATCTGAATTCCGGTCTCCC
DNA 2: TGGTGGCTACGACGGGATT
B22: CGGUAAG (DNA:RNA)
RNA: B5 RNA with A26G, G29A, G30A, U31G
DNA 1: CAATCTGAATTCCGGTCTCCC
DNA 2: TGGTGGCTACGACGGGATT
B23: CAAGUUG (DNA:RNA)
RNA: B5 RNA with G27A, U28G, G29U, G30U, U31G
DNA 1: CAATCTGAATTCCGGTCTCCC
DNA 2: TGGTGGCTACGACGGGATT
B24: AGUGGGG (DNA:RNA)
RNA: B5 RNA with C25A, A26G, G27U, U28G, U31G
DNA 1: CAATCTGAATTCCGGTCTCCC
DNA 2: TGGTGGCTACGACGGGATT
B25: UGAGCUG (DNA:RNA)
RNA: B1 RNA with G25U, C26G, C27A, U29C, A30U, A31G
DNA 1: CAATCTGAATTCCGGTCTCCC
DNA 2: TGGTGGCTACGACGGGATT
B26: GUGGGGG (DNA:RNA)
RNA: B5 RNA with C25G, A26U, U28G, U31G
DNA 1: CAATCTGAATTCCGGTCTCCC
DNA 2: TGGTGGCTACGACGGGATT
B27: CCAACGU (DNA:RNA)
RNA: B5 RNA with A26C, G27A, U28A, G29C
DNA 1: CAATCTGAATTCCGGTCTCCC
DNA 2: TGGTGGCTACGACGGGATT
B28: UGUCAUG (DNA:RNA)
RNA: GGGAGACCGGAAUUCAGAUUGUCCUGUCAUGUUAAAUCCCGUCGUAGCCACCA
DNA 1: CAATCTGAATTCCGGTCTCCC
DNA 2: TGGTGGCTACGACGGGATT
B29: GCGCACG (DNA:RNA)
RNA: B28 RNA with U25G, G26C, U27G, U30C
DNA 1: CAATCTGAATTCCGGTCTCCC
DNA 2: TGGTGGCTACGACGGGATT
B30: AUAUGUU (DNA:RNA)
RNA: B5 RNA with C25A, A26U, G27A, G30U
DNA 1: CAATCTGAATTCCGGTCTCCC
DNA 2: TGGTGGCTACGACGGGATT
B31: GAGUGAU (DNA:RNA)
RNA: B5 RNA with C25G, G30A
DNA 1: CAATCTGAATTCCGGTCTCCC
DNA 2: TGGTGGCTACGACGGGATT

This assay has as its target T1, RBFOX1 RRM. In words: EMSA; HiTS-Eq, 1 nM pool, 10 min; buffer printed only for the single-RNA assays: 10 mM Tris pH 7.5, 150 mM NaCl, 3.4 mM EDTA, 0.001% NP-40, 30 C. The note with it: tags: His6 N-terminal (pET28a); label: 5' 32P. The procedure, abridged:
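A pool of RNA with 7 randomized nucleotides, 5′-radiolabelled and with DNA-annealed flanks, was equilibrated at 1 nM for 10 min in 50 µL with purified RbFox RRM, wild type or mutant, across increasing protein concentrations. Free RNA was separated by 8% native PAGE, excised, reverse-transcribed, barcoded by PCR and sequenced. Relative association constants were obtained from read-count changes of each RNA species versus the control reaction and normalised to the cognate motif.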
As to B1, the binding signal is 0.00669 KA relative to UGCAUGU.

With B2, the binding signal is 0.00553 KA relative to UGCAUGU. The value for B3 was 0.0343 KA relative to UGCAUGU. With B4 the figure was 0.00867 KA relative to UGCAUGU; with B5, 0.0116 KA relative to UGCAUGU; with B6, 0.0134 KA relative to UGCAUGU. With B7 the figure was 0.0144 KA relative to UGCAUGU; with B8, 0.0102 KA relative to UGCAUGU. As for B9, the binding signal was 0.0216 KA relative to UGCAUGU. The value for B10 was 0.000478 KA relative to UGCAUGU.

As to B11, the binding signal was 0.000179 KA relative to UGCAUGU.

On to B12, for which the binding signal was 0.00281 KA relative to UGCAUGU. Consider B13, for which the binding signal was 0.0109 KA relative to UGCAUGU. With B14 the figure was 0.0122 KA relative to UGCAUGU. With B15 the figure was 0.00856 KA relative to UGCAUGU; with B16, 0.00633 KA relative to UGCAUGU; with B17, 0.00418 KA relative to UGCAUGU. With B18 the figure was 0.0168 KA relative to UGCAUGU; with B19, 0.011 KA relative to UGCAUGU; with B20, 0.00958 KA relative to UGCAUGU. Regarding B21, the binding signal is 0.0111 KA relative to UGCAUGU.

B22: the binding signal was 0.0104 KA relative to UGCAUGU. The value for B23 was 0.00968 KA relative to UGCAUGU. The value for B24 was 0.0118 KA relative to UGCAUGU; that for B25 was 0.0243 KA relative to UGCAUGU; that for B26 was 0.0166 KA relative to UGCAUGU.

Regarding B27, the binding signal is 0.000496 KA relative to UGCAUGU. The value for B28 was 0.0247 KA relative to UGCAUGU; that for B29 was 0.062 KA relative to UGCAUGU; that for B30 was 0.00257 KA relative to UGCAUGU. With B31 the figure was 0.0102 KA relative to UGCAUGU.
